Patent US20200407441A1 (I MAB BIOPHARMA US, published 2020)

Columns and labels:
[1] = molecular target: T1, recombinant GMCSF R alpha protein (R&D Systems) (human, UniProt P15509 23-320, limits assumed); assay: ELISA, GMCSF R alpha coated at 2 ug/mL
T1 construct: Bought reagent; also called human GMCSF receptor protein; human GM-CSF receptor
T1 sequence (looked up): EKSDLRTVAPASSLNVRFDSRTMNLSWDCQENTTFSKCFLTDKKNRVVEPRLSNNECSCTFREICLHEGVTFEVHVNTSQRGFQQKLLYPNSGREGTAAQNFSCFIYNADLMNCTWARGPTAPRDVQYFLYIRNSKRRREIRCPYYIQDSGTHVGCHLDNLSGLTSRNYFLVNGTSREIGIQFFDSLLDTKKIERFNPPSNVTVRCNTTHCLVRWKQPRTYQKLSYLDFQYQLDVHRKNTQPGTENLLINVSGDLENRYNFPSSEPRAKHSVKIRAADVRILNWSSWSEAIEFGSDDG

[2] = molecular target: T2, Tag1-CD47 (Cisbio HTRF kit) (UniProt Q08722 partial chain); assay: HTRF competition: blocks Tag1-CD47 / Tag2-SIRPα interaction (Cisbio)
T2 construct: Kit reagent
T2 sequence (Q08722 19-139 limits assumed): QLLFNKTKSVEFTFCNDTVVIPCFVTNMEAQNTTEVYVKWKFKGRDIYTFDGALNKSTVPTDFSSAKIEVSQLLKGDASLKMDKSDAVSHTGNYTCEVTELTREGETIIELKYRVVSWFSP

binding result [1]: binds
IC50 [2]: 1.3 nM
B1: fusion protein 1F8-GMCSF (other)
light: DIVMTQSPDSLAVSLGERATINCKSSQSVLYSSNNRNYLAWYQQKPGQPPKLLINQASTRASGVPDRFSGSGSGTEFTLIISSLQAEDVAIYYCQQYYTPPLAFGGGTKLEIKRTVAAPSVFIFPPSDEQLKSGTASVVCLLNNFYPREAKVQWKVDNALQSGNSQESVTEQDSKDSTYSLSSTLTLSKADYEKHKVYACEVTHQGLSSPVTKSFNRGEC
heavy: EVQLVESGGGLVKPGGSLRLSCAASGFTFSNAWMNWVRQAPGKGLEWVGRIKRKTDGETTDYAAPVKGRFSISRDDSKNTLYLQMNSLKTEDTAVYYCAGSNRAFDIWGQGTMVTVSS[in this place about 450 residues with a human IgG1 Fc]
notes: also called 1F8-GMCSF fusion protein
